# Reference: PubChem BioAssay AID686978 (National Center for Advancing Translational Sciences (NCATS), 2013)
# Several values for one entry are separate records, joined by “and”; a condition that tells them apart may be missing. Identical values can stand only once. Hit rate of the full screen: of about 420,000 compounds, about 64,000 (15%) were called active. Inconclusive results, whose numbers are uncertain, are shown with a selection of clear calls. The call rests on the fitted dose curve; in most records, active means well fitted inhibition curve with a large enough effect; inconclusive means small, poorly fitted or top-dose-only effect; inactive means flat fitted curve, though single readings scatter. Potencies of inconclusive entries are left out as doubtful fits.
# Assay: qHTS for Inhibitors of human tyrosyl-DNA phosphodiesterase 1 (TDP1): qHTS in cells in absence of CPT; further: nearly all actives have a fitted effect of over 55% in size
# Details: DT40 Tdp1-/- hTDP1 cells, no CPT, ATP luminescence, 48 h; activity change, negative = growth inhibition: at 46.2 µM (top of the series) unless noted
# Outline: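 Camptothecin absent (DMSO only). Human TDP1-complemented DT40 knockout cells, 400 cells/well, 37 °C for minimum 48 hr; ATP measured via CellTiter-Glo, 30 min dark incubation, luminescence.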
# On the % scale 0 is the no-effect control and ±100 the full control effect; potency means the concentration at half of the fitted maximal effect; tags describe the fitted curve by direction and shape.
Structure (SMILES),Potency,"activity change, negative = growth inhibition"
CN(CC(=O)Nc1cccc(F)c1)CC(=O)Nc1cccc2ccccc12,"inconclusive [inhibitor, single point]",
Cc1ccc2[nH]c3c(=O)n(CC(=O)N4CCCCC4)ncc3c2c1,inactive,
Cn1nc(NC(=O)CC(C)(C)CC(=O)O)c2ccccc21,inactive,
COc1cc(S(=O)(=O)N2CCC(O)(c3cccc(C(F)(F)F)c3)CC2)ccc1-n1cnnn1,"inconclusive [inhibitor, partial curve]",
CCOC(=O)c1ccc(N/C=C/C(=O)C(C)(C)C)cc1,inactive,
COc1ccc(C(=O)N2CCC[C@@]3(CCN(C(=O)Nc4ccccc4)C3)C2)cc1,"inconclusive [inhibitor, full curve, poor fit]",
O=C(C1CC1)N1CCC(c2nc(-c3ccc(S(=O)(=O)N4CCCC4)cc3)no2)CC1,active: 20.6 µM,
Cc1ccc(C)c(S(=O)(=O)N2CCN(C(=O)c3cc(-c4cccs4)nn3-c3ccccc3)CC2)c1,"inconclusive [inhibitor, single point]",
COc1ccc(Cc2c(-c3ccc(F)cc3)nc3ccc(Cl)cn23)c(C)c1,"inconclusive [inhibitor, single point]",
COc1ccc2[nH]cc(CCO)c2c1,inactive,
O=C(COC(=O)C1CC2C=CC1C2)Nc1cccc(S(=O)(=O)N2CCCCC2)c1 (stereo unspecified),"inconclusive [inhibitor, single point]",
COc1ccccc1CCNC(=O)C(=O)NCCC1CCCCN1S(=O)(=O)c1cccs1 (stereo unspecified),"inconclusive [inhibitor, single point]",
Brc1ccc(-c2nnc(-c3cccnc3)c3conc23)cc1,,inconclusive: -35.2% [inhibitor]
O=C(Nc1ccc(S(=O)(=O)N2CCCCC2)cc1)c1ccc(=O)[nH]c1,"inconclusive [inhibitor, single point]",
CCc1ccc(S(=O)(=O)c2cn(Cc3ccccc3)c3cc(F)c(F)cc3c2=O)cc1,"inconclusive [inhibitor, single point]",
CCc1ccccc1Nc1nc2ccccc2c2nncn12,"inconclusive [inhibitor, single point]",
CCCc1nc2ccc(C)cn2c1Cc1ccsc1,active: 9.2 µM,
C=CCNC(=S)N/N=C/c1ccc(-c2ccc(Br)cc2)o1,"inconclusive [inhibitor, single point]",
O=C(Cc1cccc(C(F)(F)F)c1)Nc1ccccc1,"inconclusive [inhibitor, single point]",
CCc1ccccc1NC1c2ccccc2C(=O)N1c1cc(C)ccn1 (stereo unspecified),"inconclusive [inhibitor, single point]",
Cc1cc(C2CC(=O)Nc3ccccc3S2)c(C)s1 (stereo unspecified),"inconclusive [inhibitor, single point]",
CC(Sc1nnc(CN2CCCC2)n1Cc1ccccc1)C(=O)Nc1ccc(F)c(F)c1F (stereo unspecified),"inconclusive [inhibitor, single point]",

Structure (SMILES),Potency,"activity change, negative = growth inhibition"
COCCC(=O)N1CCC(Oc2ccc(C(=O)N3C[C@H]4CC[C@H]3C4)cc2)CC1,inactive,
S=C(NCCc1ccccn1)Nc1ccc(Cl)c(Cl)c1,"inconclusive [inhibitor, single point]",
CN(Cc1ccccc1)CC(O)COc1ccc(CNCc2nccn2C)cc1 (stereo unspecified),"inconclusive [inhibitor, single point]",
CC(=O)Nc1ccc(C23CC4CC(CC(C4)C2)C3)cc1,"inconclusive [inhibitor, single point]",
CCCCS(=O)(=O)Nc1ccc(C)cn1,"inconclusive [inhibitor, single point]",
COc1ccccc1NC(=O)CSc1ncc2c(n1)-c1cc(Cl)ccc1N(Cc1ccccc1)S2(=O)=O,"inconclusive [inhibitor, full curve, poor fit]",
COc1ccccc1N1CCN(c2nnc(-c3ccc(F)cc3)c3ccccc23)CC1,active: 20.6 µM,
O=C(NC1CCCCC1)C(c1ccc(F)cc1)N(Cc1ccco1)C(=O)Cn1nnc2ccccc21 (stereo unspecified),inactive,
O=C(CN1C(=O)C2C3C=CC(C3)C2C1=O)NC1CCCc2ccccc21 (stereo unspecified),inactive,
C=CCOc1ccc(C2NC(=S)NC3=C2CCc2ccccc23)cc1 (stereo unspecified),"inconclusive [inhibitor, single point]",
C=CCNC(=O)c1onc(CS(=O)(=O)c2cc(C)cc(C)c2)c1C(=O)NCC=C,"inconclusive [inhibitor, partial curve]",
CCOc1ccc(Cl)cc1-c1cc(C(=O)Nc2ccc(Br)cc2)[nH]n1,active: 18.4 µM,
Cc1ccc(OCC(=O)Nc2ccc3nc(SCC(=O)N4CCOCC4)sc3c2)cc1,active: 20.6 µM,
CC(=O)c1c(C)[nH]c(C(=O)N(C)CC(=O)Nc2ccc(Cl)c(C(F)(F)F)c2)c1C,"inconclusive [inhibitor, partial curve]",
CC[C@]12c3[nH]c4ccccc4c3CCN1C(=O)C(CC(=O)NCCC1=CCCCC1)C[C@@H]2C(=O)N1CCN(C(=O)c2ccco2)CC1 (stereo partly specified),"inconclusive [inhibitor, single point]",
CC(C)n1nc(C(=O)Nc2cccc(S(=O)(=O)N3CCOCC3)c2)c2ccccc2c1=O,"inconclusive [inhibitor, partial curve, poor fit]",
CCCCNC(=O)CCCn1c(=O)c2ccccc2n(Cc2cccc(Cl)c2)c1=O,active: 23.1 µM,
Cn1c(CN2CCCCC2)nc2cc(NC(=O)c3ccccc3Cl)ccc21,active: 20.6 µM and active: 23.1 µM,
Cc1ccc(C(CC(=O)NCc2ccco2)c2ccc(OC(C)C)cc2)cc1 (stereo unspecified),,inconclusive: -34.4% [inhibitor]
COc1ccc(/C=N/N=C/c2ccc(OC)c(O)c2)cc1O,inactive,
CCOC(=O)C1CCCN(S(=O)(=O)CCNC(=O)c2ccc3c(c2)OCO3)C1 (stereo unspecified),inactive,
Oc1ccccc1N1CCN(c2nnnn2-c2ccccc2)CC1,"inconclusive [inhibitor, single point]",

Structure (SMILES),Potency,"activity change, negative = growth inhibition"
CCOC(=O)CSc1nnc(CNc2nc(-c3ccccc3)cs2)n1C,inactive,
Cc1ccnc(S(=O)(=O)Cc2ccc([N+](=O)[O-])cc2)n1,"inconclusive [inhibitor, partial curve]",
CCCCc1c(C)nc2c(-c3ccc(OC)cc3)c(C)[nH]n2c1=O,active: 10.3 µM,
O=C(NC1CCCC1)c1cc(Nc2cccc(C(F)(F)F)c2)nc2ccccc12,"inconclusive [inhibitor, partial curve]",
Cc1cc(C)nc(NC(=O)Nc2ccc3c(c2)OCO3)c1,"inconclusive [inhibitor, single point]",
CS(=O)(=O)N(C(=O)NC(=O)NC1CCS(=O)(=O)C1)C1CCCCC1 (stereo unspecified),inactive,
Nc1c(C(=O)N2CCCCC2)sc2nc3c(cc12)CCCC3,"inconclusive [inhibitor, single point]",
COc1cc(C(=O)Oc2ccc3c(OC)c4ccoc4nc3c2OC)cc(OC)c1OC,,inactive: 4.77% [at 9.04 µM]
CCN1CC(O)=C(c2nc3ccccc3s2)C1=N,"inconclusive [inhibitor, single point]",
O=C(NCCCC1CCCC1)C1CCC(=O)N(Cc2ccc(Cl)cc2)C1 (stereo unspecified),"inconclusive [inhibitor, single point]",
COC(=O)CC1[C@@]2(C)C[C@]34OC5(C)OC6(C7CC(=O)OC(c8ccoc8)[C@]7(C)CCC6(O5)[C@]13C)C(OC(C)=O)[C@]4(OC(C)=O)C2OC(C)=O (stereo partly specified),inactive,
CCOC(=O)C1=C(C)N(C[C@@H]2CC[C@@H](Cc3ccc(-c4ccccc4)cc3)O2)C(=O)NC1c1cccc([N+](=O)[O-])c1 (stereo partly specified),"inconclusive [inhibitor, single point]",
CN(C)C(=O)CCc1ccc2c3c([nH]c2c1)[C@]1(C)[C@@H](C(=O)N2CCOCC2)C[C@H](CC(=O)NCc2cccc(C(F)(F)F)c2)C(=O)N1CC3,"inconclusive [inhibitor, single point]",
COc1ccc(/C(C)=N/NC(=O)c2sccc2-n2cccc2)cc1,"inconclusive [inhibitor, full curve]",
O=C(NCCc1ccncc1)c1cnn(-c2ncc3c(n2)-c2ccccc2CCC3)c1C1CC1,"inconclusive [inhibitor, single point]",
CC(C)=CCC/C(C)=C\COc1c2ccoc2cc2oc(=O)ccc12,"inconclusive [inhibitor, full curve, poor fit]",
Cc1cc2n(n1)C(c1ccccc1Cl)Nc1ccccc1-2 (stereo unspecified),,inconclusive: -31.9% [inhibitor]
Cc1[nH]n(-c2ccc(Br)cc2)c(=O)c1/C=N/NC(=O)c1ccccc1,active: 2.91 µM,
Cc1ccc(Cc2cnc(NC(=O)/C(C#N)=C/c3ccc(-c4cccc([N+](=O)[O-])c4)o3)s2)cc1,"inconclusive [inhibitor, single point]",
CC(C)(C)N=C1NC(=NC(C)(C)C)c2ccccc21,"inconclusive [inhibitor, single point]",
COc1ccc(OC)c2[nH]c(=O)c(CCNC(=O)c3cc4ccccc4o3)cc12,"inconclusive [inhibitor, single point]",
COc1cc(/C=C(\C#N)c2ccccn2)ccc1OCc1ccc(Cl)cc1,active: 23.1 µM,
